{"source": "patent US9044420B2", "about": "“Immunogenic compositions and methods of using the compositions for inducing humoral and cellular immune responses” (IMMUNE DESIGN CORP., priority 2011, dated 2015)", "system": "Antigen-specific CD8 T cells (SIV-Gag AL11)", "experiment": "Antigen-specific CD8 T cells by ICS, vector prime and synthetic long peptide boost (Example 11)", "assay_type": "in vivo, C57BL/6 mice", "details": "prime with lentivector encoding full length immunogen, boost d21 with fragment plus GLA-SE, compared to boost with the same lentivector"}
{"sequence": "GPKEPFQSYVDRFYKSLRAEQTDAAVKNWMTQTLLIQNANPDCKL (GLA-SE adjuvant) [45-amino acid immunogen fragment]", "values": [{"measurement": "CD8 T cell response after boost", "value": "enhanced CD8 T cell response"}]}
